# Laboratory results from the supplement of paper PMC12217912.
# This is one part of the list. The full chains were built here from the parent and the listed change. Values near 0.05 are background.
# B1: TEV protease; numbered along this chain (parent)
# chain: MGESLFKGPRDYNPISSSICHLTNESDGHTTSLYGIGFGPFIITNKHLFRRNNGTLVVQSLHGVFKVKDTTTLQQHLVDGRDMIIIRMPKDFPPFPQKLKFREPQREERICLVTTNFQTKSMSSMVSDTSCTFPSGDGIFWKHWIQTKDGQCGSPLVSTRDGFIVGIHSASNFTNTNNYFTSVPKNFMELLTNQEAQQWVSGWRLNADSVLWGGHKVFMVKPEEPFQPVKEATQL
# Variants of: B1
# Assay: raw area under fraction-flipped curve 0-4 h after induction (AUC4h, not background-subtracted), DNA-recorder readout of cleavage of the substrate (dimensionless); higher = more cleavage of the substrate by the protease variant
# Details: temperature: 34 °C; time window: 0-4 h after rhamnose induction
# Method: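 In vivo DNA recorder in E. coli TOP10(DE3) ΔrhaA at 34 °C. Each TEVp single-site mutant (parent TEVp 0) is paired with a single-site variant of the 7-mer TEVs (canonical ENLYFQ|S). The substrate sits between flexible linkers in a Bxb1-sfGFP-TEVs-SsrA fusion, so cleavage stabilises Bxb1 and speeds flipping of a recombination array, read by NGS. The value is the raw area under the fraction-flipped curve over 0-4 h after rhamnose induction (AUC4h), with ≥20 reads per time point. It is not background-subtracted; inactive controls average about 0.047.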
# 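Also: Bxb1 expression induced with 0.2% (w/v) L-rhamnose at OD600 near 0.5, cultures sampled hourly, flipped fraction per protease–substrate barcode pair counted by paired-end Illumina sequencing.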
Variant,area with substrate ENAYFQS,area with substrate ENDYFQS,area with substrate ENEYFQS,area with substrate ENFYFQS,area with substrate ENGYFQS,area with substrate ENHYFQS,area with substrate ENIYFQS,area with substrate ENKYFQS,area with substrate ENMYFQS,area with substrate ENNYFQS,area with substrate ENQYFQS,area with substrate ENRYFQS,area with substrate ENSYFQS,area with substrate ENTYFQS,area with substrate ENVYFQS,area with substrate ENWYFQS,area with substrate ENCYFQS,area with substrate ENPYFQS,area with substrate ENYYFQS
MGESLFKGPRDYNPISSSICHLTNESDGHTTSLYGIGFGPFIITNKHLFRRNNGTLVVQSLHGVFKVKDTTTLQQHLVDGRDMIIIRMPKDFPPFPQKLKFREPQREERICLVTTNFQTKSMSSMVSDTSCTFPSGDGIFWKHWIQTKDGQCGSPEVSTRDGFIVGIHSASNFTNTNNYFTSVPKNFMELLTNQEAQQWVSGWRLNADSVLWGGHKVFMVKPEEPFQPVKEATQL [L156E],0.0473,0.0512,0.058,0.0398,0.0598,0.0612,0.0188,0.0366,0.0593,0.042,0.0548,0.0455,0.0472,0.0496,0.0596,0.0479,,,
MGESLFKGPRDYNPISSSICHLTNESDGHTTSLYGIGFGPFIITNKHLFRRNNGTLVVQSLHGVFKVKDTTTLQQHLVDGRDMIIIRMPKDFPPFPQKLKFREPQREERICLVTTNFQTKSMSSMVSDTSCTFPSGDGIFWKHWIQTKDGQCGSPQVSTRDGFIVGIHSASNFTNTNNYFTSVPKNFMELLTNQEAQQWVSGWRLNADSVLWGGHKVFMVKPEEPFQPVKEATQL [L156Q],0.0493,0.0572,0.0566,0.0544,,0.0487,,0.0319,,0.0507,0.0625,0.0517,0.0508,,0.0485,0.0853,0.047,0.0519,
MGESLFKGPRDYNPISSSICHLTNESDGHTTSLYGIGFGPFIITNKHLFRRNNGTLVVQSLHGVFKVKDTTTLQQHLVDGRDMIIIRMPKDFPPFPQKLKFREPQREERICLVTTNFQTKSMSSMVSDTSCTFPSGDGIFWKHWIQTKDGQCGSKLVSTRDGFIVGIHSASNFTNTNNYFTSVPKNFMELLTNQEAQQWVSGWRLNADSVLWGGHKVFMVKPEEPFQPVKEATQL [P155K],0.0542,0.0465,,0.0542,0.0595,0.0306,0.0545,,0.0563,0.0478,0.0659,0.0634,0.0573,0.0481,0.0538,,0.0475,0.0613,
MGESLFKGPRDYNPISSSICHLTNESDGHTTSLYGIGFGPFIITNKHLFRRNNGTLVVQSLHGVFKVKDTTTLQQHLVDGRDMIIIRMPKDFPPFPQKLKFREPQREERICLVTTNFQTKSMSSMVSDTSCTFPSGDGIFWKHWIQTKDGQCGSDLVSTRDGFIVGIHSASNFTNTNNYFTSVPKNFMELLTNQEAQQWVSGWRLNADSVLWGGHKVFMVKPEEPFQPVKEATQL [P155D],0.0501,0.0587,0.0537,,0.0477,0.044,,,0.0528,0.0518,0.054,0.0388,0.0475,0.0503,0.053,,0.0752,,
MGESLFKGPRDYNPISSSICHLTNESDGHTTSLYGIGFGPFIITNKHLFRRNNGTLVVQSLHGVFKVKDTTTLQQHLVDGRDMIIIRMPKDFPPFPQKLKFREPQREERICLVTTNFQTKSMSSMVSDTSCTFPSGDGIFWKHWIQTKDGMCGSPLVSTRDGFIVGIHSASNFTNTNNYFTSVPKNFMELLTNQEAQQWVSGWRLNADSVLWGGHKVFMVKPEEPFQPVKEATQL [Q151M],0.0542,0.0678,0.058,0.0737,0.0584,,,,,0.0718,0.0696,0.0523,0.0621,,0.0579,,,0.0629,
MGESLFKGPRDYNPISSSICHLTNESDGHTTSLYGIGFGPFIITNKHLFRRNNGTLVVQSLHGVFKVKDTTTLQQHLVDGRDMIIIRMPKDFPPFPQKLKFREPQREERICLVTTNFQTKSMSSMVSDTSCTFPSGDGIFWKHWIQTKDGECGSPLVSTRDGFIVGIHSASNFTNTNNYFTSVPKNFMELLTNQEAQQWVSGWRLNADSVLWGGHKVFMVKPEEPFQPVKEATQL [Q151E],0.0648,0.0684,0.0658,,0.0535,0.0573,0.133,,,0.0584,0.0553,0.0562,0.0651,0.0624,0.0873,,0.0524,0.0575,0.0344
MGESLFKGPRDYNPISSSICHLTNESDGHTTSLYGIGFGPFIITNKHLFRRNNGTLVVQSLHGVFKVKDTTTLQQHLVDGRDMIIIRMPKDFPPFPQKLKFREPQREERICLVTTNFQTKSMSSMVSDTSCTFPSGDGIFWKHWIQTKDGQCGSPLDSTRDGFIVGIHSASNFTNTNNYFTSVPKNFMELLTNQEAQQWVSGWRLNADSVLWGGHKVFMVKPEEPFQPVKEATQL [V157D],0.0524,0.0598,0.0491,0.0444,0.0599,,0.0402,0.0413,,0.0543,0.0541,0.046,0.0433,,,0.0405,0.0501,0.0441,
MGESLFKGPRDYNPISSSICHLTNESDGHTTSLYGIGFGPFIITNKHLFRRNNGTLVVQSLHGVFKVKDTTTLQQHLVDGRDMIIIRMPKDFPPFPQKLKFREPQREERICLVTTNFQTKSMSSMVSDTSCTFPSGDGIFWKHWIQTKDGQCGHPLVSTRDGFIVGIHSASNFTNTNNYFTSVPKNFMELLTNQEAQQWVSGWRLNADSVLWGGHKVFMVKPEEPFQPVKEATQL [S154H],0.0573,0.0624,,0.0487,0.0509,,0.132,0.0567,,,0.0684,,0.0682,,0.0596,0.0658,0.078,0.0504,0.0521
MGESLFKGPRDYNPISSSICHLTNESDGHTTSLYGIGFGPFIITNKHLFRRNNGTLVVQSLHGVFKVKDTTTLQQHLVDGRDMIIIRMPKDFPPFPQKLKFREPQREERICLVTTNFQTKSMSSMVSDTSCTFPSGDGIFWKHWIQTKDGQPGSPLVSTRDGFIVGIHSASNFTNTNNYFTSVPKNFMELLTNQEAQQWVSGWRLNADSVLWGGHKVFMVKPEEPFQPVKEATQL [C152P],0.0504,0.0619,,,0.0664,,,0.0647,,0.0617,0.0529,0.0523,0.0508,0.082,0.053,0.0595,0.0609,,0.0733
